Test results taken from the RNAGym collection of RNA variant scans (doi:10.7554/elife.90254).
Read counts are not given, so values of variants with three or more changes are uncertain.

B1: LINE1-mini (parent)
chain: GGCAGAGCUCAACACAGCGUGGCAAAGUGGCUGUGGCUAGACUGCC

Variants of: B1
Assay: self-cleavage, relative activity (ratio to wild type); higher = more cleavage; in vitro, sequencing; the parent is a self-cleaving ribozyme
With GGCAGAGCUCAAAAAAGCUUGGCAAAGUGGCUGUGGCUAGACUGCC [C13A C15A G19U] the self-cleavage was 0.06.
Variant GGCAGAGCUCAACACAGCCUGGCAAAGUGGCUGUGGCUAGAUUGCU [G19C C42U C46U] has a self-cleavage of 0.06.
With GUCAGAGCUCAACACAGCGUGGUAAAGUGGCUGUGGCUAGCCGGCC [G2U C23U A41C U43G] the self-cleavage was 0.
Work on GGCAGAGCUCAGCACAACGUGGAAAAGUGGCUGUAGCUAGACUGCC [A12G G17A C23A G35A] yielded a self-cleavage of 0.01.
Variant UGCAGUGCUCAACACAGUGUGGCAAAGUGGCGGUGGCUAGUCUGCC [G1U A6U C18U U32G A41U] has a self-cleavage of 0.02.
GGCAGAGCUGUACACAGCGUGUAAAAGCGGCUGUGGCUAGACUGCC [C10G A11U G22U C23A U28C] showed a self-cleavage of 0.02.
In the case of GGCAGAACUCAACACCGCGUGGCAAAGUGGCUGUGGCUAGACUGUC [G7A A16C C45U], the self-cleavage is reported as 0.13.
Work on AACAGAGCGCAACACAGAGUGGCAAAGUGGCUGUGGCUAGACUGCC [G1A G2A U9G C18A] yielded a self-cleavage of 0.87.
For GGCAGAGCUCAACACAGCUUGGCAAACUGGCUGUGGCUCGUCUGCC [G19U G27C A39C A41U], the self-cleavage was 0.13.
Variant GGCAGAGCUCAACAUAGCGUGGCAAAUUGGCUGUGGAUAGACUUCC [C15U G27U C37A G44U] has a self-cleavage of 0.1.
Variant GGCGGAGCUCAACACAGCGGGGCAAAGUGGCUGUUGCUAGACUGCU [A4G U20G G35U C46U] has a self-cleavage of 0.16.
GGCAGUGCUCAACACAGCGUGGCAAAAUGGCUGUAGCUAGACUGCC [A6U G27A G35A] gave a self-cleavage of 1.
In the case of GGCAGGGCUCAACACAGCGUGGCCAAGUGGCUGUGGCUAGACUGCA [A6G A24C C46A], the self-cleavage is reported as 0.19.
For GACAGAGCUCCACACGGCGUGGCAAAGUGCCUGUGGCUAGACUGCC [G2A A11C A16G G30C], the self-cleavage was 0.02.
AGCAGGGCUCGACACAGCGCGGCAAAGUGGCUGUGGCUAGACUGCC [G1A A6G A11G U20C] showed a self-cleavage of 0.03.
In the case of GGCAGAGCUAAUCACAGCGUUGCAAAGUGGCUGUGGCUAGACUGCC [C10A A12U G21U], the self-cleavage is reported as 0.02.
GUCAGAGCUCAACACAGCCUGGCAAAGUGGCUGUGGCUAGACUGAC [G2U G19C C45A] showed a self-cleavage of 0.1.
Variant GGCAGAGCUCAACACAGCUUGGCAAACUGGCUGGGGCUAGACUGCC [G19U G27C U34G] has a self-cleavage of 0.26.
Variant GGCAGGGCUCAACACAGCGUGGCAGAGUGGCUGUGGCUAGGCUGCC [A6G A25G A41G] has a self-cleavage of 0.1.
GGCAGAGCUCAAGACAUCGUGGCAAAGUGGUUGUGGCUAGACUGCC [C13G G17U C31U] gave a self-cleavage of 0.02.
GGCGGAUCUCAACACAGCGUGGCACAGUGGCUGUGACUAGACUGCC [A4G G7U A25C G36A] showed a self-cleavage of 0.1.
Variant GGGAGAGCUCAACACAGCGUGGCAAGGUGGCUAUGGCUAGACUGCC [C3G A26G G33A] has a self-cleavage of 0.02.
GGAAGGGCUCAACACAGCGUGGCAAAGUGUCUGUGGCUAGACUGCC [C3A A6G G30U] showed a self-cleavage of 0.1.
Work on GGCAGAGCUCAACGCAGCGUGGCAAAGUGGCCGUGGCUAGACUGAU [A14G U32C C45A C46U] yielded a self-cleavage of 0.02.
Work on GGUAGAGCUCAACACAGCGUGGCAAAGCUGCUGUGGCUAGACUGCC [C3U U28C G29U] yielded a self-cleavage of 0.18.
Variant GGCUGAGCUCAACACAGCGUGGCAAAGUGGCUGUGCGUAGACUCCA [A4U G36C C37G G44C C46A] has a self-cleavage of 0.43.
Variant GGCAGAGCUCAACACAGCGUGGAAAACUGGCUGUGGCUAGACUGCG [C23A G27C C46G] has a self-cleavage of 0.17.
GGCAGAGCUCAACACAGCGUGGCAACGUUGCUGUGGUUAGACUGCC [A26C G29U C37U] showed a self-cleavage of 0.04.
For UGCAGAGCUAAACACAGCGUGGCAAAGUGGCUGUGGUUAUACUGCC [G1U C10A C37U G40U], the self-cleavage was 0.
With GGCAGAGCUCAACUCAGCGUGGCAAAGUGGCUGUGGCUGUACUGCC [A14U A39G G40U] the self-cleavage was 0.11.
Work on GAGAGAGCUCAACACAGCGUGGCGCAGUGCCUGUGGCUAGGCUGCC [G2A C3G A24G A25C G30C A41G] yielded a self-cleavage of 1.29.
With GGCAGAGUUCAUCACAGCGUAGCAAAGUGGCUGUGGCUAGACUGAC [C8U A12U G21A C45A] the self-cleavage was 0.02.
GGCACAGCCCAACACAGCGUGGCAAAGUGGCUGUUGCUAGACUGCC [G5C U9C G35U] showed a self-cleavage of 0.03.
In the case of GGCAGAGCUCAACACAGCGUGGCAAAUUGGCUGUGGCUUGACUGGC [G27U A39U C45G], the self-cleavage is reported as 0.07.
GGCAGAGCUCAACACAGCGUGGCAAAGUGGCUGUGGGUAGAAUAUC [C37G C42A G44A C45U] gave a self-cleavage of 0.01.
GGAAGAGCCCAACACAGCGUGGCUAAGUGGCUGUGGCUAGACUGCC [C3A U9C A24U] gave a self-cleavage of 0.05.
Variant GGCAGAGCUCAACACAGCGUGGCAAAGUGGCUGUGGCUAGACGCAC [U43G G44C C45A] has a self-cleavage of 0.13.
In the case of GGCACAGGUCAACACAGCGUGGCAAAGUGGCUGUGACUAGAUUGCC [G5C C8G G36A C42U], the self-cleavage is reported as 0.1.
Work on GGCAGAGCUCAACACGGCGGGGCAAAGUGGCUGUGGCUAGACUGAC [A16G U20G C45A] yielded a self-cleavage of 0.05.
GGCAGAUCUCAACACAGUGUGGCAAAGUGGCUGUGGCUCGACUGCC [G7U C18U A39C] showed a self-cleavage of 0.42.
GGCAGAGCUCAACACAGGGUGGCACACUGGCUGUGGCUAGACUGCA [C18G A25C G27C C46A] gave a self-cleavage of 0.44.
GGCAGAGCUAAACACAGCGUAGCAAAGAGGCUGUGGCUAAACUGCC [C10A G21A U28A G40A] gave a self-cleavage of 0.
GGUAGAGUUCAACACAGCCGGGCAAAGUGGCUGUGGCUAGACUGCC [C3U C8U G19C U20G] gave a self-cleavage of 0.06.
GGCAGAGCUUAACACAGCGUGGCAAUGUGUGUGUAGCUAGACUGGA [C10U A26U G30U C31G G35A C45G C46A] gave a self-cleavage of 0.02.
Variant GCCAGAGCUCAACACAGCGUGGCAAAGUAGCUGUGACUAGACUGCC [G2C G29A G36A] has a self-cleavage of 0.2.
GGCAGAGCUCAACACAACAUGGCAAAGUGGCUCUGGCUAGACUGCC [G17A G19A G33C] gave a self-cleavage of 0.03.
In the case of GGCAGAGCUCAACACAGCUUGUCAAAGUGGGUGUGGCUAGACUGCC [G19U G22U C31G], the self-cleavage is reported as 0.
With GGGAGUGCUCAACACAGCGUGGCAAAGUGGCUGUGGCCAGCCUGCC [C3G A6U U38C A41C] the self-cleavage was 0.05.
GCCAGAGCUCGACACAGCGUAGCAACGUGGAUGUGGCUAGACUGCC [G2C A11G G21A A26C C31A] gave a self-cleavage of 0.01.
With AGCAAAACUCAACACAGCGUGGAAAAGUGGCUGUGGCUAGACUGCC [G1A G5A G7A C23A] the self-cleavage was 1.35.
Variant GGCAGAGCUCAACACAGCGUGGCGCAGUUGCUGUGGCUAAACUGGC [A24G A25C G29U G40A C45G] has a self-cleavage of 0.02.
GGCAGAGCUCUACACAGCGUGGCAAAGUGGCUGUGGCUAGAACGCC [A11U C42A U43C] showed a self-cleavage of 0.01.
For GGCAGGGCCCAACACAGCGUGGCAAGGUUGCUGGGGCUAGACUGCC [A6G U9C A26G G29U U34G], the self-cleavage was 0.01.
GUCCGAGAUCAACACUGCGUGGCAAUGUGGCUGUGGCUAGACUGCC [G2U A4C C8A A16U A26U] showed a self-cleavage of 0.07.
In the case of GGCAGAGCUCACCACGCCGUGGCAAAGUGGCUGUGGAUAGACUGCC [A12C A16G G17C C37A], the self-cleavage is reported as 0.02.
With GGCAGAGCUCACCACAGCGUGGCAUAGUGGCUGUGGCUAUACUGGC [A12C A25U G40U C45G] the self-cleavage was 0.06.
